The whole screen tested about 200,000 compounds, of which about 4,500 (2.2%) were called active. Inconclusive means that the source gave no clear call. Such entries were picked first, then a sample of the others. Calls come from the whole dose curve; as a rule, active = well fitted inhibition curve with a large enough effect; inconclusive = small, poorly fitted or top-dose-only effect, or effect the other way; inactive = flat fitted curve, though single readings scatter. Where the call is inconclusive, the potency comes from a doubtful curve fit.
molecular target: Cruzipain (Trypanosoma cruzi) (UniProt P25779); experiment: qHTS Assay for Promiscuous and Specific Inhibitors of Cruzain (without detergent); conditions: purified cruzain, Z-FR-AMC fluorescence, no detergent; note: nearly all actives have a fitted effect of over 40% in size;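 for max response, negative = inhibition: plate controls were enzyme without inhibitor for no effect and buffer without enzyme for full effect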
Procedure, shortened: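 Detergent-free condition (0.00005% Triton X-100) in acetate buffer pH 5.5 with DTT. 1.5 nM enzyme and compound were pre-mixed 15 min, then 2 uM Z-FR-AMC substrate added; reaction progress from fluorescence change between first and third reads (60 s).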
Potency is the fitted concentration of half-maximal effect; tags give direction and shape of the fitted curve.

UniProt P25779, sequence (P25779 whole entry, looked up): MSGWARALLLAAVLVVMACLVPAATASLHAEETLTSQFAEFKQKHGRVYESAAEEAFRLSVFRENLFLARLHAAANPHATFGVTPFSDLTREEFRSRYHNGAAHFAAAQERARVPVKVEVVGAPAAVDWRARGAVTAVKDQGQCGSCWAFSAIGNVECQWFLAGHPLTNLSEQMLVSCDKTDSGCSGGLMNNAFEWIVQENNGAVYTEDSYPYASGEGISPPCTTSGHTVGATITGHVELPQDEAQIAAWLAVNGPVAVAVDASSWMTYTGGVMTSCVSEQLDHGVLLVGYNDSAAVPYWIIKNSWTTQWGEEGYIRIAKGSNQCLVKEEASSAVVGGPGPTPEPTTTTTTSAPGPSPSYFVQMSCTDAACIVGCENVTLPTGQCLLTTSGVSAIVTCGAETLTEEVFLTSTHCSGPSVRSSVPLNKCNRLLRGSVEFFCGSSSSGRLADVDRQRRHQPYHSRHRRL

| SMILES | Potency | max response, negative = inhibition |
| --- | --- | --- |
| Cc1ccc2occ(CC(=O)Nc3c(C)cccc3C)c2c1 | inconclusive: 31.6 µM [inhibitor, single point] | – |
| COc1ccc(-c2coc3cc4oc(=O)c5ccccc5c4cc23)cc1F | inconclusive: 31.6 µM [inhibitor, single point] | – |
| O=C(NCCc1nc2ccccc2n1Cc1ccc(Cl)cc1)c1ccccc1 | – | inactive: 17.1% |
| O=C(Nc1cccc(-c2nnc(-c3ccccc3)o2)c1)C1CCCCC1 | inconclusive: 39.8 µM [activator, single point] | – |
| Cc1cccc(Cc2cnc(N3C(=N)SC(c4ccccc4)C3=O)s2)c1 (stereo not given) | inconclusive: 31.6 µM [inhibitor, single point] | – |
| O=C(O)c1ccccc1C(=O)Nc1ccc(-c2csc(-c3ccccc3)n2)cc1 | inconclusive: 39.8 µM [activator, single point] | – |
| Cc1ccc(NC(=O)c2ccc(-c3ccccc3)s2)cc1 | active: 12.6 µM | – |
| CCn1c2ccccc2c2cc(C3C(C#N)=C(C)NC(C)=C3C#N)ccc21 | inconclusive: 25.1 µM [inhibitor, single point] | – |
| O=C(/C=C/c1ccncc1)c1ccc(NC(=O)c2ccccc2F)cc1 | inconclusive: 39.8 µM [inhibitor, single point] | – |
| CC(C)[C@H]1COC(c2cccc([N+](=O)[O-])c2)=N1 | – | inactive: -2.28% |
| COC(=O)c1cc(OC)c(OC)cc1NC(=O)CCC1CCCC1 | inconclusive: 39.8 µM [activator, single point] | – |
| Cc1nn(Cc2ccc(F)cc2)c2sc(C(=O)Nc3ccc(N4CCOCC4)cc3N3CCOCC3)cc12 | inconclusive: 25.1 µM [activator, partial curve] | – |
| CS(=O)(=O)C1=NSC2=NC(=O)/C(=C\c3cccn3-c3ccc(Cl)cc3)C(=N)N21 | inconclusive: 12.6 µM [activator, partial curve] | – |
| Cc1ccc(Nc2c(-c3cccs3)nc3nc(C)cc(C)n23)cc1 | inconclusive: 39.8 µM [activator, single point] | – |
| Cc1oc2ncnc(N3CCCCC3)c2c1C(=O)N1CCN(c2cccc(C(F)(F)F)c2)CC1 | inconclusive: 39.8 µM [activator, single point] | – |
| CCc1ccc(NCc2cc3cc4c(cc3n(CC(=O)Nc3ccc(C)cc3)c2=O)OCO4)cc1 | – | inactive: -21.7% |
| COc1ccc(NC(=O)N2CC[C@@]3(CCCN(C(=O)c4cc(C(F)(F)F)cc(C(F)(F)F)c4)C3)C2)cc1 | inconclusive: 39.8 µM [activator, single point] | – |
| CCOc1ccc(CCNC(=O)c2cn(CC)c3ccc(S(=O)(=O)N4CCc5ccccc5C4)cc3c2=O)cc1OCC | inconclusive: 3.16 µM [activator, single point] | – |
| N#Cc1c(N2CCCCC2)nc(N)c2c(N)nc3c(c12)CC(c1ccccc1)O3 (stereo not given) | inconclusive: 31.6 µM [inhibitor, single point] | – |
| C[C@@H](O)C#C[Si](C)(C)c1ccccc1 | – | inactive: 2.59% |

| SMILES | Potency | max response, negative = inhibition |
| --- | --- | --- |
| CCn1c2ccccc2c2cc(CN3CCN(Cc4ccccc4F)CC3)ccc21 | inconclusive: 39.8 µM [inhibitor, single point] | – |
| CCOc1ccc(S(=O)(=O)NCCc2sc3nc(-c4ccc(F)cc4)nn3c2C)cc1 | inconclusive: 31.6 µM [activator, single point] | – |
| Cc1ccc(CNC(=O)c2ccc(Cn3c(=O)c4ccccc4n(CC(=O)Nc4ccc(C)cc4C)c3=O)cc2)cc1 | inconclusive: 25.1 µM [inhibitor, single point] | – |
| CCOc1ccc(OCC)c(NS(=O)(=O)c2cc(-c3cc(C)no3)ccc2C)c1 | inconclusive: 10 µM [activator, partial curve] | – |
| NCCNC(=S)S | – | inactive: 4.06% |
| N#Cc1c(NC(NC(=O)c2ccco2)C(=O)c2ccccc2)sc2c1CCCC2 (stereo not given) | active: 25.1 µM | – |
| CCC(=O)NC(=S)Nc1ccc(NC(=O)COc2ccc(Cl)cc2Cl)cc1 | inconclusive: 31.6 µM [inhibitor, single point] | – |
| COC(=O)[C@@]1(Cc2ccc(F)cc2)[C@H]2c3cc(C(=O)N(C)C)n(CCO)c3C[C@H]2CN1C(=O)c1ccccc1 | inconclusive: 20 µM [activator, partial curve] | – |
| CC(C)c1nnc(NC(=O)C2CCN(c3nc4ccccc4s3)CC2)s1 | inconclusive: 20 µM [activator, single point] | – |
| COc1ccccc1CNC(=O)CCC(=O)N1CC2CCCN2c2ccccc21 (stereo not given) | – | inactive: -13.5% |
| Cn1c(=O)c(-c2cccc(Cl)c2)nc2cncnc21 | – | inactive: -8.09% |
| COc1ccc(-c2[nH]c3ccccc3c2SCCNC(=O)c2cc(OC)c(OC)c(OC)c2)cc1 | inconclusive: 25.1 µM [activator, single point] | – |
| CCOc1ccc(NC(=O)N2CCN(c3nc4ccccc4s3)CC2)cc1 | inconclusive: 39.8 µM [inhibitor, single point] | – |
| Cc1ccc(-n2ncc(C(=O)NCc3ccccc3C)c2-n2cccc2)cc1 | – | inactive: 10.2% |
| O=C(NCc1ccc2c(c1)CCN2C(=O)c1ccc(F)cc1)c1cc2ccccc2[nH]1 | inconclusive: 39.8 µM [inhibitor, single point] | – |
| COc1cccc(CSc2nc3ccccc3c3nc(CCn4c(C)nc5ccccc54)nn23)c1 | inconclusive: 6.31 µM [activator, single point] | – |
| O=C(CSc1nnnn1C1CCCCC1)N1c2ccccc2Sc2ccccc21 | inconclusive: 31.6 µM [inhibitor, single point] | – |
| COc1ccccc1N(C)S(=O)(=O)c1ccc(C(=O)OCC(=O)c2c[nH]c3ccccc23)cc1 | inconclusive: 31.6 µM [inhibitor, partial curve, poor fit] | – |
| O=C(Nc1ccc(F)cc1)Nc1ccc(N2CCCC2)c(S(=O)(=O)Nc2ccccc2Cl)c1 | active: 3.16 µM | – |
| COc1cccc(C(=O)Oc2cccc(N3C(=O)C4C5CC(C(Br)C5Br)C4C3=O)c2)c1 (stereo not given) | inconclusive: 25.1 µM [inhibitor, single point] | – |
